Test results as given in patent publication EP4806911A1, “TRIPLE AGONIST COMPOUND” (Chengdu Aoda Biotechnology Co., Ltd, priority 2023, dated 2025).
pEC50: −log10 of the molar value. At least one compound was matched to its structure with a doubt left.

Legend:
Type in all cases: cell-based
GCG-R = molecular target: T1, GCG-R (Homo sapiens, UniProt P47871); assay: GCG activity test (cAMP, chemiluminescence); settings: CHO-K1 cell line stably expressing GCG-R; relative luminescence units; read-out: GCG [EC50(pmol)]
T1 construct: expressed in transfected cells; host or cells: CHO-K1
Experimental: (§1) Upon stimulation by a specific agonist, GCG-R activates the intracellular adenylate cyclase signaling pathway, resulting in an increase in cAMP levels and ultimately leading to […]. A cell line stably transfected with GCG-R was stimulated with test compounds, thereby rapidly increasing intracellular cAMP levels. The relative luminescence units (RLU) of cells stimulated at various concentrations were measured by a chemiluminescence method, and the EC50 value of the agonist was calculated accordingly. This activity assay method is currently a commonly used method for evaluating GCG receptor agonist activity both domestically and internationally. A CHO-K1 cell line stably expressing GCG-R was used. The stable cells were stimulated with agonists at different concentrations, and the relative luminescence units after stimulation at each concentration were measured to calculate the EC50 value of the agonist.

GIPR = molecular target: T2, GIPR (Homo sapiens, UniProt P48546); assay: GIP activity test (cAMP, chemiluminescence); settings: CHO-K1 cell line stably expressing GIPR; relative luminescence units; read-out: GIP [EC50(pmol)]
T2 construct: expressed in transfected cells; host or cells: CHO-K1
T2 sequence (P48546 22-466): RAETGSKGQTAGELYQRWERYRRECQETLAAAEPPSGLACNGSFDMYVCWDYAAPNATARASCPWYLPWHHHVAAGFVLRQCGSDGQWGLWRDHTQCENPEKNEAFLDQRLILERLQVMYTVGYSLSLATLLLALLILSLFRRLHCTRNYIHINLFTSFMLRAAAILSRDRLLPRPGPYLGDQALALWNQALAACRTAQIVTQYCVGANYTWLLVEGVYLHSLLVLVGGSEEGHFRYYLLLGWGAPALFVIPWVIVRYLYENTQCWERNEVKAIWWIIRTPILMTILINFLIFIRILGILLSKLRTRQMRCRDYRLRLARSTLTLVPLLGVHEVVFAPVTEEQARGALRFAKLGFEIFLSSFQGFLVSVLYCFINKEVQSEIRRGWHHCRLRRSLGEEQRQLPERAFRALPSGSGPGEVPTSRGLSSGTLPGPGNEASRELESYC
Experimental: as §1, with “GIPR” for “GCG-R”, “GIP” for “GCG”

GLP-1R = molecular target: T3, GLP-1R (Homo sapiens, UniProt P43220); assay: GLP-1 activity test (cAMP, chemiluminescence); settings: CHO-K1 cell line stably expressing GLP-1R; relative luminescence units; read-out: GLP-1 [EC50(pmol)]
T3 construct: expressed in transfected cells; host or cells: CHO-K1
Experimental: as §1, with “GLP-1R” for “GCG-R”, “test” for “assay”, “GLP-1” for “GCG”

T3 sequence (P43220 24-463, species assumed): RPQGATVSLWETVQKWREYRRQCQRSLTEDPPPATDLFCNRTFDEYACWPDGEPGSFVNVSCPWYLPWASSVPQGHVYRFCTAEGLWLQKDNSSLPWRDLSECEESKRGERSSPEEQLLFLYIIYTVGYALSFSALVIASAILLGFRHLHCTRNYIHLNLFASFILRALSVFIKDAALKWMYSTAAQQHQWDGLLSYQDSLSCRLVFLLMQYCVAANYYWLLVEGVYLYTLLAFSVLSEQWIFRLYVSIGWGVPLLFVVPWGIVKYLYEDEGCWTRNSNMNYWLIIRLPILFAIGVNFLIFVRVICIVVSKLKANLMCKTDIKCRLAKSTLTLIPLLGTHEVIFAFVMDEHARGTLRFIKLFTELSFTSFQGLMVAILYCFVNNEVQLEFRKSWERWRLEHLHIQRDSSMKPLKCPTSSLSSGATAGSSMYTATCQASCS
T1 sequence (P47871 26-477, species assumed): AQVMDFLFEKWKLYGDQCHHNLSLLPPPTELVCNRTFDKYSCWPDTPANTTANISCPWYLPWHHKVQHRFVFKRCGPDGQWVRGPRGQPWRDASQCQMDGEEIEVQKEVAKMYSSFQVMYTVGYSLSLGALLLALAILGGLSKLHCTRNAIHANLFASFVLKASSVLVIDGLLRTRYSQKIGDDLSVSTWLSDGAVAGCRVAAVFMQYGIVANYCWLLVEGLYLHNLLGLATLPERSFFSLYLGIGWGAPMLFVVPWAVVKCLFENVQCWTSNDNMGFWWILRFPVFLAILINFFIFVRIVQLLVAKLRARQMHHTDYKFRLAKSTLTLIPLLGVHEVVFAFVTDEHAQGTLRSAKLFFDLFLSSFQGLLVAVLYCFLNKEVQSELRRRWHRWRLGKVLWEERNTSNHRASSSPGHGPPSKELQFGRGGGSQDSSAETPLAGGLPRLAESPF

Compound	pEC50 (GCG-R)	pEC50 (GIPR)	pEC50 (GLP-1R)
CC[C@H](C)[C@H](NC(=O)[C@H](Cc1ccccc1)NC(=O)[C@H](C)NC(=O)C(C)(C)NC(=O)[C@H](CCC(N)=O)NC(=O)[C@H](C)NC(=O)[C@H](CCCCNC(=O)COCCOCCNC(=O)CCCCC[C@H](NC(=O)CCCCCCCCCCCCCCCCCCC(=O)O)C(=O)O)NC(=O)[C@H](CCCCN)NC(=O)[C@H](CC(=O)O)NC(=O)[C@H](CC(C)C)NC(=O)C(C)(CC(C)C)NC(=O)[C@@H](NC(=O)[C@H](CO)NC(=O)[C@H](Cc1ccc(O)cc1)NC(=O)[C@H](CC(=O)O)NC(=O)[C@H](CO)NC(=O)[C@@H](NC(=O)C(C)(Cc1ccccc1F)NC(=O)[C@@H](NC(=O)CNC(=O)[C@H](CCC(N)=O)NC(=O)C(C)(C)NC(=O)[C@@H](N)Cc1ccc(O)cc1)[C@@H](C)O)[C@@H](C)O)[C@@H](C)CC)C(=O)N[C@@H](CCC(=O)O)C(=O)N[C@@H](Cc1ccc(O)cc1)C(=O)N[C@@H](CC(C)C)C(=O)N[C@@H](CC(C)C)C(=O)N[C@@H](CCC(=O)O)C(=O)NCC(=O)NCC(=O)N1CCC[C@H]1C(=O)N[C@@H](CO)C(=O)N[C@@H](CO)C(=O)NCC(=O)N[C@@H](C)C(=O)N1CCC[C@H]1C(=O)N1CCC[C@H]1C(=O)N1CCC[C@H]1C(=O)N[C@@H](CO)C(N)=O (stereo partly drawn) [Compound 8]	9.75	10.55	10.29
CC[C@H](C)[C@H](NC(=O)[C@H](Cc1ccccc1)NC(=O)[C@H](C)NC(=O)C(C)(C)NC(=O)[C@H](CCC(N)=O)NC(=O)[C@H](C)NC(=O)[C@H](CCCCNC(=O)COCCOCCNC(=O)CCCC[C@H](NC(=O)CCCCCCCCCCCCCCCCCCC(=O)O)C(=O)O)NC(=O)[C@H](CCCCN)NC(=O)[C@H](CC(=O)O)NC(=O)[C@H](CC(C)C)NC(=O)C(C)(CC(C)C)NC(=O)[C@@H](NC(=O)[C@H](CO)NC(=O)[C@H](Cc1ccc(O)cc1)NC(=O)[C@H](CC(=O)O)NC(=O)[C@H](CO)NC(=O)[C@@H](NC(=O)C(C)(Cc1ccccc1F)NC(=O)[C@@H](NC(=O)CNC(=O)[C@H](CCC(N)=O)NC(=O)C(C)(C)NC(=O)[C@@H](N)Cc1ccc(O)cc1)[C@@H](C)O)[C@@H](C)O)[C@@H](C)CC)C(=O)N[C@@H](CCC(=O)O)C(=O)N[C@@H](Cc1ccc(O)cc1)C(=O)N[C@@H](CC(C)C)C(=O)N[C@@H](CC(C)C)C(=O)N[C@@H](CCC(=O)O)C(=O)NCC(=O)NCC(=O)N1CCC[C@H]1C(=O)N[C@@H](CO)C(=O)N[C@@H](CO)C(=O)NCC(=O)N[C@@H](C)C(=O)N1CCC[C@H]1C(=O)N1CCC[C@H]1C(=O)N1CCC[C@H]1C(=O)N[C@@H](CO)C(N)=O (stereo partly drawn) [Compound 7]	9.78	10.60	10.33
CC[C@H](C)[C@H](NC(=O)[C@H](Cc1ccccc1)NC(=O)[C@H](C)NC(=O)C(C)(C)NC(=O)[C@H](CCC(N)=O)NC(=O)[C@H](C)NC(=O)[C@H](CCCCNC(=O)COCCOCCNC(=O)CCC[C@H](NC(=O)CCCCCCCCCCCCCCCCCCC(=O)O)C(=O)O)NC(=O)[C@H](CCCCN)NC(=O)[C@H](CC(=O)O)NC(=O)[C@H](CC(C)C)NC(=O)C(C)(CC(C)C)NC(=O)[C@@H](NC(=O)[C@H](CO)NC(=O)[C@H](Cc1ccc(O)cc1)NC(=O)[C@H](CC(=O)O)NC(=O)[C@H](CO)NC(=O)[C@@H](NC(=O)C(C)(Cc1ccccc1F)NC(=O)[C@@H](NC(=O)CNC(=O)[C@H](CCC(N)=O)NC(=O)C(C)(C)NC(=O)[C@@H](N)Cc1ccc(O)cc1)[C@@H](C)O)[C@@H](C)O)[C@@H](C)CC)C(=O)N[C@@H](CCC(=O)O)C(=O)N[C@@H](Cc1ccc(O)cc1)C(=O)N[C@@H](CC(C)C)C(=O)N[C@@H](CC(C)C)C(=O)N[C@@H](CCC(=O)O)C(=O)NCC(=O)NCC(=O)N1CCC[C@H]1C(=O)N[C@@H](CO)C(=O)N[C@@H](CO)C(=O)NCC(=O)N[C@@H](C)C(=O)N1CCC[C@H]1C(=O)N1CCC[C@H]1C(=O)N1CCC[C@H]1C(=O)N[C@@H](CO)C(N)=O (stereo partly drawn) [Compound 6]	9.88	10.72	10.39
CC[C@H](C)[C@H](NC(=O)[C@H](Cc1ccccc1)NC(=O)[C@H](C)NC(=O)C(C)(C)NC(=O)[C@H](CCC(N)=O)NC(=O)[C@H](C)NC(=O)[C@H](CCCCNC(=O)COCCOCCNC(=O)CCCC[C@H](NC(=O)CCCCCCCCCCCCCCCCCCC(=O)O)C(=O)O)NC(=O)[C@H](CCCCN)NC(=O)[C@H](CC(=O)O)NC(=O)[C@H](CC(C)C)NC(=O)C(C)(CC(C)C)NC(=O)[C@@H](NC(=O)[C@H](CO)NC(=O)[C@H](Cc1ccc(O)cc1)NC(=O)[C@H](CC(=O)O)NC(=O)[C@H](CO)NC(=O)[C@@H](NC(=O)C(C)(Cc1ccccc1)NC(=O)[C@@H](NC(=O)CNC(=O)[C@H](CCC(N)=O)NC(=O)C(C)(C)NC(=O)[C@@H](N)Cc1ccc(O)cc1)[C@@H](C)O)[C@@H](C)O)[C@@H](C)CC)C(=O)N[C@@H](CCC(=O)O)C(=O)N[C@@H](Cc1ccc(O)cc1)C(=O)N[C@@H](CC(C)C)C(=O)N[C@@H](CC(C)C)C(=O)N[C@@H](CCC(=O)O)C(=O)NCC(=O)NCC(=O)N1CCC[C@H]1C(=O)N[C@@H](CO)C(=O)N[C@@H](CO)C(=O)NCC(=O)N[C@@H](C)C(=O)N1CCC[C@H]1C(=O)N1CCC[C@H]1C(=O)N1CCC[C@H]1C(=O)N[C@@H](CO)C(N)=O (stereo partly drawn) [Compound 3]	9.74	10.59	10.30
CC[C@H](C)[C@H](NC(=O)[C@H](Cc1ccccc1)NC(=O)[C@H](C)NC(=O)C(C)(C)NC(=O)[C@H](CCC(N)=O)NC(=O)[C@H](C)NC(=O)[C@H](CCCCNC(=O)COCCOCCNC(=O)CCC[C@H](NC(=O)CCCCCCCCCCCCCCCCCCC(=O)O)C(=O)O)NC(=O)[C@H](CCCCN)NC(=O)[C@H](CC(=O)O)NC(=O)[C@H](CC(C)C)NC(=O)C(C)(CC(C)C)NC(=O)[C@@H](NC(=O)[C@H](CO)NC(=O)[C@H](Cc1ccc(O)cc1)NC(=O)[C@H](CC(=O)O)NC(=O)[C@H](CO)NC(=O)[C@@H](NC(=O)C(C)(Cc1ccccc1)NC(=O)[C@@H](NC(=O)CNC(=O)[C@H](CCC(N)=O)NC(=O)C(C)(C)NC(=O)[C@@H](N)Cc1ccc(O)cc1)[C@@H](C)O)[C@@H](C)O)[C@@H](C)CC)C(=O)N[C@@H](CCC(=O)O)C(=O)N[C@@H](Cc1ccc(O)cc1)C(=O)N[C@@H](CC(C)C)C(=O)N[C@@H](CC(C)C)C(=O)N[C@@H](CCC(=O)O)C(=O)NCC(=O)NCC(=O)N1CCC[C@H]1C(=O)N[C@@H](CO)C(=O)N[C@@H](CO)C(=O)NCC(=O)N[C@@H](C)C(=O)N1CCC[C@H]1C(=O)N1CCC[C@H]1C(=O)N1CCC[C@H]1C(=O)N[C@@H](CO)C(N)=O (stereo partly drawn) [Compound 2]	9.76	10.68	10.36
CC[C@H](C)[C@H](NC(=O)[C@H](Cc1ccccc1)NC(=O)[C@H](C)NC(=O)C(C)(C)NC(=O)[C@H](CCC(N)=O)NC(=O)[C@H](C)NC(=O)[C@H](CCCCNC(=O)COCCOCCNC(=O)CCCCC[C@H](NC(=O)CCCCCCCCCCCCCCCCCCC(=O)O)C(=O)O)NC(=O)[C@H](CCCCN)NC(=O)[C@H](CC(=O)O)NC(=O)[C@H](CC(C)C)NC(=O)C(C)(CC(C)C)NC(=O)[C@@H](NC(=O)[C@H](CO)NC(=O)[C@H](Cc1ccc(O)cc1)NC(=O)[C@H](CC(=O)O)NC(=O)[C@H](CO)NC(=O)[C@@H](NC(=O)C(C)(Cc1ccccc1)NC(=O)[C@@H](NC(=O)CNC(=O)[C@H](CCC(N)=O)NC(=O)C(C)(C)NC(=O)[C@@H](N)Cc1ccc(O)cc1)[C@@H](C)O)[C@@H](C)O)[C@@H](C)CC)C(=O)N[C@@H](CCC(=O)O)C(=O)N[C@@H](Cc1ccc(O)cc1)C(=O)N[C@@H](CC(C)C)C(=O)N[C@@H](CC(C)C)C(=O)N[C@@H](CCC(=O)O)C(=O)NCC(=O)NCC(=O)N1CCC[C@H]1C(=O)N[C@@H](CO)C(=O)N[C@@H](CO)C(=O)NCC(=O)N[C@@H](C)C(=O)N1CCC[C@H]1C(=O)N1CCC[C@H]1C(=O)N1CCC[C@H]1C(=O)N[C@@H](CO)C(N)=O (stereo partly drawn) [Compound 4]	9.72	10.52	10.25
